Reference: PubChem BioAssay AID485294 (National Center for Advancing Translational Sciences (NCATS), 2010)
Out of some 370,000 compounds screened, about 150 (0.041%) were called active. Inconclusive means that the source gave no clear call. Such entries were picked first, then a sample of the others. Calls follow the shape of the dose curve; as a rule, active = well fitted inhibition curve with a large enough effect; inconclusive = small, poorly fitted or top-dose-only effect; inactive = flat fitted curve, though single readings scatter. Potencies of inconclusive entries are left out as doubtful fits.

What follows are compounds tested against Beta-lactamase (Escherichia coli (strain K12)) (UniProt P00811) (assay: qHTS Inhibitors of AmpC Beta-Lactamase (assay with detergent)). Settings: AmpC hydrolysis of nitrocefin, absorbance 480 nm, 0.01% Triton; activity change, negative = inhibition: at 114 µM (top of the series).
UniProt P00811, sequence (P00811 whole entry, looked up): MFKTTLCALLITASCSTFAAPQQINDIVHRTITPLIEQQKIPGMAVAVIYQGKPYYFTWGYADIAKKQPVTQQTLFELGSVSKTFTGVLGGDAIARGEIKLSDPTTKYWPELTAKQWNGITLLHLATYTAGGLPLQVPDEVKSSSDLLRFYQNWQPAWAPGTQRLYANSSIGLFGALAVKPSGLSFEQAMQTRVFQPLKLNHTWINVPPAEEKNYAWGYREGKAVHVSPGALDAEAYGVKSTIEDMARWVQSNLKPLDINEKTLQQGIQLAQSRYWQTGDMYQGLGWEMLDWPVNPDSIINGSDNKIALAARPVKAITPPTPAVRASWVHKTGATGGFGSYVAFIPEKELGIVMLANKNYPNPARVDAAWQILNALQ
Outline: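 AmpC (5.3 nM in the dispensed reagent) in 20 mM phosphate pH 7.0 with 0.01% (detergent screen) or 0.0001% Triton X-100 was preincubated with compounds for 15 min at room temperature. Nitrocefin was then added from an 800 uM solution, and hydrolysis was followed at 480 nm.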
Also: nearly all actives have a fitted effect of over 25% in size.
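For activity change, negative = inhibition in this document: 0% = no-compound wells and -100% = no-enzyme wells.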
Potency is read from the fitted curve at half-maximal effect; tags tell the direction and shape of the fitted curve.

SMILES | Potency | activity change, negative = inhibition
CC(C)OCCCNC(=O)CNC(=O)c1cccs1 | inconclusive [inhibitor, partial curve] | 
O=C(CSc1n[nH]c(=O)n1-c1ccc2c(c1)OCCO2)Nc1ccccc1 | inactive | 
CC(C)(C)c1ccc(C2C3=C(CCCC3=O)NC3=C2C(=O)c2ccccc23)cc1 (stereo not drawn) | inconclusive [inhibitor, full curve, poor fit] | 
Cc1ccc(C(=O)N2CCN(c3ccc(NC(=O)c4cccnc4Cl)cc3)CC2)cc1 | inconclusive [inhibitor, full curve, poor fit] | 
COc1ccccc1CNC(=O)C(C)n1cccc1C(=O)c1ccccc1 (stereo not drawn) | inconclusive [inhibitor, single point] | 
O=C(NC1CCS(=O)(=O)C1)c1c(NC(=O)C2COc3ccccc3O2)sc2c1CCCC2 (stereo not drawn) | inactive | 
O=C(CNS(=O)(=O)c1ccc(Cl)cc1)NNC(=O)c1cccnc1 |  | inconclusive: -16.1% [inhibitor]
C(=N/Nc1nc(-c2ccccc2)cc(-c2ccccc2)n1)/c1cccnc1 | inconclusive [inhibitor, single point] | 
COc1ccc(-c2noc(N3CCC(C(=O)NCCCN4CCCCC4)CC3)n2)cc1 | inconclusive [inhibitor, full curve, poor fit] | 
CCOC(=O)c1cnn(CCOC(=O)c2ccc(F)cc2)c1NC(=O)c1ccc(F)cc1 | inconclusive [inhibitor, partial curve, poor fit] | 
Cc1ccccc1NC(=O)COC(=O)c1cc(=O)c2ccccc2o1 | inconclusive [inhibitor, single point] | 
O=C(O)CSc1c(-c2cccs2)[nH]c2ccccc12 | inconclusive [inhibitor, full curve, poor fit] | 
CN(Cc1ccc(C(C)(C)C)cc1)C(=O)C1CCN(C(=O)Nc2ccccc2)CC1 | inconclusive [inhibitor, partial curve, poor fit] | 
Cc1ccccc1CN1CCN(CC(=O)NCc2ccccc2Cl)C1=O | inactive | 
CC(Nc1nc(C(F)(F)F)nc2ccccc12)c1cccs1 (stereo not drawn) | inconclusive [inhibitor, partial curve] | 
CC(=O)c1c(C)[nH]c(C(=O)Nc2cccc(S(=O)(=O)N(C)c3ccccc3)c2)c1C | inactive | 
CCc1noc(C)c1C(=O)Nc1cc(Cl)ccc1N1CCCC1 | inconclusive [inhibitor, full curve] | 
c1ccc(COCCN2CCN(CCOCc3ccccc3)CC2)cc1 | inactive | 
Cc1cccc(C)c1NC(=O)CN(C)C(=O)C1CCN(c2ncnc3sc(C)c(C)c23)CC1 | inconclusive [inhibitor, full curve, poor fit] | 
O=C(O)c1sccc1S(=O)(=O)c1ccccc1 | inconclusive [inhibitor, partial curve] | 
COc1ccc(N2CC(NC(=O)c3ccc(S(=O)(=O)N4CCCCC4)cc3)CC2=O)cc1OC (stereo not drawn) | inactive | 
O=C(CC12CC3CC(CC(C3)C1)C2)NCCN1CCOCC1 | inconclusive [inhibitor, full curve, poor fit] | 
CCOC(=O)c1c(NC(=O)CCS(=O)(=O)c2ccccc2)sc2c1CCN(C(C)C)C2 | inactive | 

SMILES | Potency | activity change, negative = inhibition
CCOC(=O)N1CCN(Cc2nc(Cc3cccc(F)c3)no2)CC1 | inconclusive [inhibitor, single point] | 
Cc1cc(C(=O)N2CCN(Cc3ccc4c(c3)OCO4)CC2)on1 | inconclusive [inhibitor, full curve, poor fit] | 
Cc1ccc(-c2nc3s/c(=C\c4ccco4)c(=O)n3n2)cc1 | inconclusive [inhibitor, single point] | 
CC(C)N(Cc1nccn1C)C(=O)c1cc(COc2cccc(C(F)(F)F)c2)on1 | inconclusive [inhibitor, full curve, poor fit] | 
S=C(NCc1ccncc1)Nc1ccc(Br)cc1Cl | inactive | 
CCN(CCCNC(=O)Cn1cc2c(n1)CCCC2)c1cccc(C)c1 | inconclusive [inhibitor, full curve] | 
CCC(C)NC(=O)Nc1ccc2c(c1)N(C)C(=O)c1ccccc1S2 (stereo not drawn) | inconclusive [inhibitor, full curve, poor fit] | 
CCc1ccc(C(=O)N2CCN(c3ccc(F)cc3)CC2)s1 | inconclusive [inhibitor, full curve, poor fit] | 
CCOC(=O)Cn1c(=O)oc2cc(S(=O)(=O)Nc3ccc(N(CC)CC)cc3C)ccc21 | inconclusive [inhibitor, partial curve, poor fit] | 
COc1cccc(C(=O)c2cn(CC(=O)Nc3cccc(C)c3C)c3nc(C)ccc3c2=O)c1 | inconclusive [inhibitor, partial curve] | 
Cc1nnc(SCc2nnc(-c3ccccc3Br)o2)n1-c1ccccc1 | inconclusive [inhibitor, partial curve, poor fit] | 
Cc1ccc(NC(=O)c2ccccc2N2C(=O)C3C4C=CC(C5CC45)C3C2=O)cc1C (stereo not drawn) | inactive | 
CCCCc1nc2cc(C(=O)N3CCCC(COC)C3)ccc2o1 (stereo not drawn) | inconclusive [inhibitor, full curve, poor fit] | 
Cc1ccc(CNC(=O)CCn2cc(-c3ccc(F)cc3)nc2-c2ccncc2)cc1 | inactive | 
Cc1ccc(NC(=O)CN(C)C(=O)C(C)N2CCN(Cc3ccccc3C)CC2)cc1 (stereo not drawn) | inconclusive [inhibitor, full curve, poor fit] | 
O=C(CSc1nnc(-c2ccncc2)n1Cc1ccco1)N1c2ccccc2Sc2ccc(Cl)cc21 | inactive | 
Cc1cc(NC(=O)c2ccc(Cl)cc2)cc(C)c1OCC(=O)N1CCOCC1 | inactive | 
Cc1nn(C)c(=O)n1N(C)c1ncc(C(F)(F)F)cc1Cl | inconclusive [inhibitor, full curve] | 
O=C(CNS(=O)(=O)c1cccc(Cl)c1)OCc1csc(-c2ccccc2)n1 | inconclusive [inhibitor, partial curve] | 
CC(OC(=O)CCc1ccccc1)C(=O)Nc1ccc(Cl)cn1 (stereo not drawn) | inconclusive [inhibitor, full curve, poor fit] | 
O=C1C(Cl)=C(N2CCCCC2)C(=O)N1c1ccccc1Cl | inconclusive [inhibitor, full curve, poor fit] | 
CCOC(=O)c1ccc(COC(=O)CCc2nc(-c3ccccc3)c(-c3ccccc3)o2)cc1 | inconclusive [inhibitor, full curve, poor fit] | 
CNC(=O)Nc1ccccc1NC(=O)NC | inconclusive [inhibitor, full curve, poor fit] | 

SMILES | Potency | activity change, negative = inhibition
CC(C)=C(NC(=O)c1ccccc1)C(=O)N1CCOCC1 | inconclusive [inhibitor, full curve, poor fit] | 
COc1ccccc1C(=O)COC(=O)C1CCN(S(=O)(=O)c2ccc(C)c(C)c2)CC1 | inactive | 
O=C(NC1CC1)c1ccc2c(c1)N(Cc1ccc(Cl)cc1)CCS2 | inconclusive [inhibitor, full curve, poor fit] | 
Cc1ccccc1-n1c(SCC(=O)c2c(N)n(C)c(=O)n(C)c2=O)nc2sc3c(c2c1=O)CCCC3 | inactive | 
Cc1ccc2cccc(NC(=O)C(C)(C)Oc3ccc(Br)cc3)c2n1 | inactive | 
COc1cc(NC(=O)CN2CCN(CC(=O)Nc3ccccc3OC)CC2)cc(OC)c1 | inactive | 
COc1ccc(NC(=O)C(c2ccc(OC)cc2)N(C)C(=O)CC2NC(=O)NC2=O)cc1 (stereo not drawn) | inactive | 
CC(CCc1ccccc1)OS(N)(=O)=O (stereo not drawn) | inconclusive [inhibitor, full curve, poor fit] | 
CCCC(=O)Nc1nc(-c2ccc3c(c2)OCCO3)cs1 | inconclusive [inhibitor, full curve, poor fit] | 
CCCC(c1nnnn1C1CCCCC1)N1CCN(C(=O)c2ccco2)CC1 (stereo not drawn) | inactive | 
COC(=O)c1nc(NC(C)=O)n[nH]1 | inactive | 
NC(N)=NCCCC(NC(=O)c1ccccc1)C(=O)Nc1ccc2ccccc2c1 (stereo not drawn) | inconclusive [inhibitor, full curve, poor fit] | 
Cc1cc(=O)[nH]c(SCC(=O)NCc2ccco2)n1 | inconclusive [inhibitor, full curve] | 
Cc1cnc(NC(=O)c2c(-c3ccccc3)noc2C)s1 | inconclusive [inhibitor, single point] | 
CC(C)C[C@H](NC(=O)Nc1ccc(Oc2ccccc2)cc1)C(=O)O | inactive | 
O=C(O)Cc1sc(N/N=C\c2ccncc2)nc1-c1ccccc1 | inactive | 
CC(=O)c1ccc(NC(=O)CSc2nnc(Cn3c(=O)sc4ccccc43)n2C)cc1 | inconclusive [inhibitor, full curve, poor fit] | 
N#C/C(=C(/O)COC(=O)CCC1CCCCC1)c1nc2ccccc2[nH]1 | inactive | 
N#C/C(=C\c1ccc(-c2cc(Cl)ccc2Cl)o1)C(=O)Nc1ccccc1C(=O)O | inactive | 
COc1cccc(C=Nc2ccc3c(c2)CCC3)c1O | inconclusive [inhibitor, full curve, poor fit] | 
COc1ccccc1CC(=O)N1CCN(c2cccc(C(F)(F)F)c2)CC1 | inconclusive [inhibitor, partial curve] | 
CCOc1ccc(N2CC(C(=O)Nc3cccc(S(=O)(=O)N4CCCC4)c3)CC2=O)cc1 (stereo not drawn) | inconclusive [inhibitor, full curve, poor fit] | 
